# Assay results taken from the BET-seq Pho4 binding data (Le et al. 2018).
# This is one part of the list. These are noisy estimates, calculated here from bound and input reads.
# Target: T1, Pho4 (S. cerevisiae) (UniProt P07270)
# T1 sequence: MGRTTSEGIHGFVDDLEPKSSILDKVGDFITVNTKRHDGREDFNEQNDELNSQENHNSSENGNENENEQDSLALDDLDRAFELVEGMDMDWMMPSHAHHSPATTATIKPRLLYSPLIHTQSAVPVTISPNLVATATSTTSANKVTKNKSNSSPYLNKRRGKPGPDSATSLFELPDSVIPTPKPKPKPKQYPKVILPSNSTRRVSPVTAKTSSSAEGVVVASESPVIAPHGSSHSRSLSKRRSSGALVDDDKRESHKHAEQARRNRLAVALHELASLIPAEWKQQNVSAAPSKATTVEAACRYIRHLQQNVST
# Test: relative binding free energy (BET-seq); higher = weaker binding
# Settings: reference: library average
row,Sequence,relative binding free energy
1,TTCGTCACGTGTAGAT,0.31 kcal/mol
2,AAATTCACGTGTATGG,0.21 kcal/mol
3,GGACACACGTGCGGGG,-0.01 kcal/mol
4,TGAATCACGTGGTGAC,0.28 kcal/mol
5,TCGGTCACGTGATCGT,0.3 kcal/mol
6,CCGTTCACGTGAAGGG,0.37 kcal/mol
7,TGGTGCACGTGGAATA,0.13 kcal/mol
8,ATTTACACGTGCTTGT,0.03 kcal/mol
9,TATCTCACGTGAGAGT,0.3 kcal/mol
10,AATATCACGTGAATGT,0.28 kcal/mol
11,AATGCCACGTGAGTGG,0.21 kcal/mol
12,TTGTGCACGTGGGATT,-0.05 kcal/mol
13,AGGATCACGTGGACGA,0.32 kcal/mol
14,TGAATCACGTGGTTGC,0.18 kcal/mol
15,AATTGCACGTGGAGAT,-0.08 kcal/mol
16,CTTTGCACGTGGGTGC,-0.13 kcal/mol
17,CCAGGCACGTGGCGGG,-0.26 kcal/mol
18,TTAAGCACGTGAGTGT,0.17 kcal/mol
19,AGTTCCACGTGGTGGG,0.08 kcal/mol
20,ATCGTCACGTGTGGGT,0.15 kcal/mol
21,AGAGTCACGTGGTAGC,0.15 kcal/mol

row,Sequence,relative binding free energy
1,GTTTGCACGTGACTGT,0.07 kcal/mol
2,ATATCCACGTGTTTAG,0.13 kcal/mol
3,GGACGCACGTGGAGGT,-0.12 kcal/mol
4,TGGCCCACGTGAGTGG,0.04 kcal/mol
5,AGGGTCACGTGTCTAT,0.2 kcal/mol
6,CGTGTCACGTGCGTGC,0.01 kcal/mol
7,GGGGCCACGTGTTTAG,-0.06 kcal/mol
8,GGGCGCACGTGGGGGC,-0.17 kcal/mol
9,TACGGCACGTGTGGCT,-0.03 kcal/mol
10,TATCGCACGTGTTGAG,-0.03 kcal/mol
11,TTTGGCACGTGGCTGT,-0.11 kcal/mol
12,GTTGCCACGTGATTGG,0.03 kcal/mol
13,GGCGGCACGTGTCGGT,-0.08 kcal/mol
14,AGGGACACGTGGTTTA,-0.04 kcal/mol
15,AGACTCACGTGGGTGG,0.1 kcal/mol
16,GTTCGCACGTGGGAAT,0.04 kcal/mol
17,GTAAACACGTGTGGGA,0.09 kcal/mol
18,TGGTTCACGTGGATGC,0.08 kcal/mol
19,AGCGGCACGTGTTATG,-0.08 kcal/mol
20,GGAGTCACGTGGGATT,0.13 kcal/mol
21,TGGTGCACGTGCTATT,-0.09 kcal/mol

row,Sequence,relative binding free energy
1,AGGGCCACGTGTGTGC,-0.15 kcal/mol
2,GCGGTCACGTGATGTG,0.25 kcal/mol
3,TTTAGCACGTGGGAAA,-0.14 kcal/mol
4,GGAGACACGTGGGCGG,-0.17 kcal/mol
5,GGCTGCACGTGTTAGG,0.11 kcal/mol
6,GGTGTCACGTGATGTA,0.29 kcal/mol
7,GGTATCACGTGTACTG,0.16 kcal/mol
8,GGATCCACGTGGTATG,-0.01 kcal/mol
9,GAGCGCACGTGGTGGT,-0.09 kcal/mol
10,AGGGACACGTGATTTG,0.23 kcal/mol
11,TTATGCACGTGGAATC,0.16 kcal/mol
12,AAGTTCACGTGGAGCG,0.31 kcal/mol
13,GAGCTCACGTGGGTGA,0.15 kcal/mol
14,GTTGTCACGTGCCTTT,0.2 kcal/mol
15,GGGTTCACGTGCTGCG,0.31 kcal/mol
16,TGGTTCACGTGGAATG,0.2 kcal/mol
17,TTGTGCACGTGAAGGT,0.25 kcal/mol
18,ATGTTCACGTGTTCAA,0.23 kcal/mol
19,TTAGGCACGTGTTAAG,-0.09 kcal/mol
20,GTCCTCACGTGGTGGT,0.1 kcal/mol
21,TGGCTCACGTGCATGG,0.22 kcal/mol
